# Reference: paper PMC7819943, “Rice protein-binding microarrays: a tool to detect cis-acting elements near promoter regions in rice”
# This is one part of the list.
# Molecular target: T1, OsWOX13 (Oryza sativa, UniProt Q5QMM3 1-267)
# T1 sequence: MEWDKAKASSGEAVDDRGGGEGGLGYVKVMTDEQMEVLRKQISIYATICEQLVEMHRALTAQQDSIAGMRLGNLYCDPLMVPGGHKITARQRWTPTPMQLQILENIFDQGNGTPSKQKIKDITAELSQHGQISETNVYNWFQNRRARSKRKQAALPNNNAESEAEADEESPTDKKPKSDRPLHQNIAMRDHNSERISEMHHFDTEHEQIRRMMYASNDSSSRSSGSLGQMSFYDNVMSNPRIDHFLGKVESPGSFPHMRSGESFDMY
# Test: protein-binding microarray (RPBM); PBS, 2% BSA, 51.3 ng/ul salmon testes DNA, 50 uM zinc acetate, 200 nM TF, 25 C, 1 h; high values mean tight binding
# Conditions: protein: recombinant; tags: N-terminal polyhistidine and DsRed monomer fusion (pET32a); label: CyDye5-dUTP incorporated in the synthesized complementary strand; 3' TTTTT single-stranded linker to array surface; dsDNA, one strand shown
# Procedure, shortened: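 Polyhistidine-tagged DsRed fusions of transcription factors, joined at the N-terminus, were expressed in E. coli BL21-CodonPlus and isolated on Ni–NTA. They were incubated at 200 nM for 1 h at 25 °C on a custom Agilent array, double-stranded and BSA-blocked, in PBS with 2% BSA, salmon testes DNA and 50 µM zinc acetate. The binding signal is per-feature fluorescence intensity (arbitrary units) read on an Axon 4000B scanner after washing.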
row,Sequence,binding signal
1,ACAAGTTTACTAATTTGAATCAAATTTTGGATGTTTTCATCGGAGTCACCTAGTGCAG,6050 fluorescence intensity (a.u.)
2,TCGTAATGATTCCAGTGCAATCAACAGCTGGATCCTCTTTCGGAGTCACCTAGTGCAG,4590 fluorescence intensity (a.u.)
3,TATATAGATTGCTTCTTCAAGTAAACGAGATCTTTGCTAGCGGAGTCACCTAGTGCAG,20100 fluorescence intensity (a.u.)
4,GGAAGATTAGTTTAATCCGACCCACGCATCGCCATGGACCCGGAGTCACCTAGTGCAG,9120 fluorescence intensity (a.u.)
5,TTGAGAAGTCCATAATTGACTTTTAGATTTTGGAAAAGGGCGGAGTCACCTAGTGCAG,17500 fluorescence intensity (a.u.)
6,CGGGTTAGATTATAATTGTAAATTTCAGTTCAATTTGCAGCGGAGTCACCTAGTGCAG,21900 fluorescence intensity (a.u.)
7,CACATTGTTCCAATTTCAATCAAACTCTCAATTTTGACGTCGGAGTCACCTAGTGCAG,5040 fluorescence intensity (a.u.)
8,AAAATTGAGTCCAAATCAAACAAGTTAATTTCGCGCATCTCGGAGTCACCTAGTGCAG,24400 fluorescence intensity (a.u.)
9,TAGGATTGAAATCCTTCAAATTTCCTACACTTTTCCTACACGGAGTCACCTAGTGCAG,14500 fluorescence intensity (a.u.)
10,TTCAAAAGATTAGAATAAATTGAGTTCAAACAATTCAAATCGGAGTCACCTAGTGCAG,5660 fluorescence intensity (a.u.)
11,CTCCCAATTATCCTCTCCTCCTCTGCTTCATCTCCACCACCGGAGTCACCTAGTGCAG,6500 fluorescence intensity (a.u.)
12,AAAATTATCCAATCTTCACCTCCCACACCCCGAGCTCGAGCGGAGTCACCTAGTGCAG,4600 fluorescence intensity (a.u.)
13,ATAACAATAATTAATCAGCACGAGACAAGTCCCTATCCAACGGAGTCACCTAGTGCAG,16000 fluorescence intensity (a.u.)
14,TATAATTGCCGAATCAGTTAGAAGACATTTTCATTGATAGCGGAGTCACCTAGTGCAG,21800 fluorescence intensity (a.u.)
15,AAGCGAAGAGCTCTGATTGCTGGTGGTGATGATTACCGGACGGAGTCACCTAGTGCAG,6620 fluorescence intensity (a.u.)
16,ATTGATCAAAATTTTCCTCTCGTTGTTCTGCTTAGTACTGCGGAGTCACCTAGTGCAG,6770 fluorescence intensity (a.u.)
17,AAAATAAATAATCTAACGTTACTAACAAAGTTAATGGTGTCGGAGTCACCTAGTGCAG,3730 fluorescence intensity (a.u.)
18,ATAAATATATTGTACTAACATATGCTAATTTATTGTGTAACGGAGTCACCTAGTGCAG,5570 fluorescence intensity (a.u.)
19,GTCCAATCTTTCAATGAAATTGTTCTTTGGGCTCTAACGTCGGAGTCACCTAGTGCAG,3870 fluorescence intensity (a.u.)
20,AAATAAATTATCCTGTGAATTAACTATGCTGCTAATTGCTCGGAGTCACCTAGTGCAG,22900 fluorescence intensity (a.u.)
21,AAAATATAATTATTGTTGTGAATATTACTTTATACGTGACCGGAGTCACCTAGTGCAG,12100 fluorescence intensity (a.u.)
22,AACTAATTTAATAAATGAGAGCTAATCCGCGAGACGAATTCGGAGTCACCTAGTGCAG,21100 fluorescence intensity (a.u.)
23,AACCAACGGTCAGATTTAATTGGTACCTGGTACCTCATAGCGGAGTCACCTAGTGCAG,3830 fluorescence intensity (a.u.)
